Source: paper PMC4336329 (PLoS ONE, 2015)
Among all 310,000 compounds or so, about 2,200 (0.71%) showed an effect of 50% or more. Effects have a minus sign here. The list shows a part of the results.

target: human ether-à-go-go-related gene (hERG) potassium channel (human, UniProt Q12809); test: primary screen, population patch clamp on CHO cells stably expressing hERG
Sequence (Q12809 whole entry, looked up): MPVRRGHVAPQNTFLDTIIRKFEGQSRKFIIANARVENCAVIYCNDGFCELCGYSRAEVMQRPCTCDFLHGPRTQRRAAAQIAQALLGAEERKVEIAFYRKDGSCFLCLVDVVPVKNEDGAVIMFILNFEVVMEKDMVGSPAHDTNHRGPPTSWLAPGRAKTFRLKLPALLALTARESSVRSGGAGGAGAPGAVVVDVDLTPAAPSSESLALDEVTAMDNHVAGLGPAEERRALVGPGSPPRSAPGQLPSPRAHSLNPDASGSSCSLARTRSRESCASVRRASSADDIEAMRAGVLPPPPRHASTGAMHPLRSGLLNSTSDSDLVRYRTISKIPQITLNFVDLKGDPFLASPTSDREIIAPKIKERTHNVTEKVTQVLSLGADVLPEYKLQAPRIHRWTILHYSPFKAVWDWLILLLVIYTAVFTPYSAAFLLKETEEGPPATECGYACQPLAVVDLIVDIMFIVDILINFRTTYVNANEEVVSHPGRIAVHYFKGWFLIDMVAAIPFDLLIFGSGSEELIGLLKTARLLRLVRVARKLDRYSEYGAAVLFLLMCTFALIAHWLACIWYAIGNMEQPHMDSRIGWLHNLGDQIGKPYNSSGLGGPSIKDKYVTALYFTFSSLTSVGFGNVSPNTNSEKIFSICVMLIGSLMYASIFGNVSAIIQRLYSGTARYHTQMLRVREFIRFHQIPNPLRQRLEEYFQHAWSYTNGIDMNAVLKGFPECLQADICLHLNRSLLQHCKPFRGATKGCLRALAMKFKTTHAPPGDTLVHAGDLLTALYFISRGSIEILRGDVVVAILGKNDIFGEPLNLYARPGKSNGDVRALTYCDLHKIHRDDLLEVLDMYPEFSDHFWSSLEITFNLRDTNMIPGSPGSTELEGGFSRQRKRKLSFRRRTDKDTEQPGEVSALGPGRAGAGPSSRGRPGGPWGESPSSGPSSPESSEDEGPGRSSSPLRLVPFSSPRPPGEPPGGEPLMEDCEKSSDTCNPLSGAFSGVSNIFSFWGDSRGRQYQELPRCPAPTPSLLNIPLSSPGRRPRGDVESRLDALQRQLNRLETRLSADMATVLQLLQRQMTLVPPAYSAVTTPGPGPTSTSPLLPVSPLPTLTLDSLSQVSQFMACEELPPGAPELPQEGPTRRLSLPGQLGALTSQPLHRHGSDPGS

| Compound | hERG current change (%, negative = inhibition) at 1uM |
| --- | --- |
| CCOC(=O)CC1C(=O)NCCN1C(=O)c1c(F)cccc1F (stereo not drawn) | 8.2% |
| N=c1c2c3c(sc2ncn1CCN1CCOCC1)CCCCC3 | -4.43% |
| Cc1cccc(OC(C)C(=O)N(Cc2cccs2)C2CCS(=O)(=O)C2)c1C (stereo not drawn) | 18.6% |
| O=C(C1CCCC1)N1CCN(S(=O)(=O)c2ccc(F)cc2)CC1 | 12.5% |
| COc1ccc(CCNC(=O)c2cc(-c3ccc4c(c3)OCO4)on2)cc1OC | -5.64% |
| Cc1ccc2cc(/C=N/NC(=O)CN3CCCCC3)c(Cl)nc2c1 | 2.13% |
| COc1ccc(CNCc2ccc([N+](=O)[O-])cc2)cc1OC.O=C(O)C(=O)O | 0.367% |
| COCCNc1c2c(nc3ccccc13)CCC2.Cl | -41.5% |
| Cc1nc2scc(C)n2c(=O)c1S(=O)(=O)NCc1ccccc1 | 12.1% |
| O=C(Nc1nc2ccccc2n1CCN1CCOCC1)c1cn(-c2ccccc2)nc1-c1ccccc1 | 11.4% |
| CN(CCCNC(=O)c1ccc(N2CCCC2=O)cc1)c1ccccc1 | 3.05% |
| CCOC(=O)C(=O)c1csc(NC(=O)CCSc2ccc(C)cc2)n1 | 13% |
| CC1CC(C)CN(C(=O)C2CCC(CNS(=O)(=O)c3ccccc3)CC2)C1 (stereo not drawn) | 8.93% |
| Cc1ccc(NC(=O)CSc2n[nH]c(=O)n2C2CC2)cc1S(=O)(=O)N1CCOCC1 | 12.4% |
| CC(C)Oc1ccc(/C(O)=C2/C(=O)C(=O)N(CCN3CCNCC3)C2c2cccc([N+](=O)[O-])c2)cc1 (stereo not drawn) | 14% |
| O/N=C/c1nc2cc(Cl)ccc2o1 | 10.2% |
| CCOc1c(Cl)cc(C(=O)Nc2ccccc2C(=O)O)cc1Cl | 28.5% |
| O=C(CSc1ccc(Cl)cc1)Nc1ccc(N2CCN(C(=O)c3ccco3)CC2)cc1 | 8.45% |
| O=C(CSc1nnc(COc2ccccc2)o1)NC1CC2CCC1C2 (stereo not drawn) | 14.8% |
| CC(C)N(CCNS(=O)(=O)c1ccc(Cl)cc1)C(C)C.Cl | -4.62% |
| Cc1c(Cl)cn2c(=O)cc(CN3CCN(c4ccc(F)cc4)CC3)nc2c1Cl | -30% |
| O=C(Nc1ccc(S(=O)(=O)N2CCOCC2)cc1)c1cccc(Br)c1 | 7.5% |
| COc1cccc(N=C2SC(C(=O)Nc3ccccc3F)CC(=O)N2C)c1 (stereo not drawn) | 7.25% |

| Compound | hERG current change (%, negative = inhibition) at 1uM |
| --- | --- |
| COc1ccc([N+](=O)[O-])cc1NC(=O)C(C)OC(=O)Cn1[nH]c(=O)c2ccccc2c1=O (stereo not drawn) | 6.84% |
| Cc1ccc(C)c(OCCCNCc2ccccc2)c1.O=C(O)C(=O)O | 5.9% |
| Cc1[nH]c(=O)c(C#N)c(C)c1[N+](=O)[O-] | -0.0181% |
| C=CCN(c1ccc(Br)cc1C(=O)OC)S(C)(=O)=O | 10% |
| CC(C)N(C(=O)c1ccc(C(=O)Nc2ccc([N+](=O)[O-])cc2)cc1)C(C)C | 9.51% |
| CCn1cc(C(=O)O)c(=O)c2cnc(N3CCN(C(=S)NC(=O)c4ccc(F)c(F)c4)CC3)nc21 | 13% |
| N#CC1=C(C=Nc2ccccc2O)CCC1 | 10.1% |
| CCCCOc1c(Cl)cc(C(=O)N(C)CC(=O)Nc2ccc(N3CCOCC3)cc2)cc1OCC | 9.76% |
| COC(=O)N/N=C/c1ccccc1OCc1ccccc1 | 12.4% |
| CCOc1ccc(OC(=O)c2cccnc2)cc1 | 11.8% |
| COc1cc(C(=O)OCC(=O)NCCCc2ccccc2)ccc1OCC(C)C | 19.7% |
| CC(C)NC(=O)CSc1ccccc1C(=O)N1CCN(S(=O)(=O)/C=C/c2ccccc2)CC1 | 1.89% |
| CC1=CC(C2CC(=O)N(c3ccccc3C)C2=O)CC2C(=O)N(c3ccccc3C)C(=O)C12 (stereo not drawn) | 10.8% |
| COc1ccccc1N1CCN(c2ncnc3c2oc2ccccc23)CC1 | 15% |
| COc1ccccc1NC(=O)C1=C(C)Nc2nc(-c3ccccc3)nn2C1c1ccccn1 (stereo not drawn) | 1.46% |
| Cc1noc(C)c1CSCc1ccc(Cl)cc1 | 31.8% |
| Cc1[nH]nc2c1-c1nc3ccccc3nc1C(C)(C)C2 | 7.07% |
| CC(OC(=O)Cn1[nH]c(=O)c2ccccc2c1=O)C(=O)NC1(C#N)CCCCC1 (stereo not drawn) | 22.2% |
| COc1cc(C(=O)OCC(=O)NC2CCCC2)cc(OC)c1OC | 17.9% |
| CC(=O)Oc1ccc([C@@H]2COc3c(ccc4c3C=CC(C)(C)O4)C2)c(OC(C)=O)c1 | 15.1% |
| NC(=O)N/N=C/c1cccc(C(F)(F)F)c1 | 8.76% |
| O=C(COC(=O)c1ccc2ncsc2c1)Nc1ncc(Cl)cc1Cl | 5.17% |
| CCNC(=O)/C(C#N)=C/c1c(N(Cc2ccccc2)Cc2ccccc2)nc2ccccn2c1=O | -11.9% |

| Compound | hERG current change (%, negative = inhibition) at 1uM |
| --- | --- |
| CCc1ccc(/C=C\C(=O)N2CCCC2)cc1 | 6.1% |
| COc1ccccc1NC(=O)Cc1csc(N)n1 | 13.9% |
| O=C(Oc1ccc2ccccc2c1Br)N1CCCCCC1 | 8.05% |
| CCOC(=O)c1ccc[n+](CC(=O)c2ccc(NC(=O)c3ccccc3)cc2)c1.[Br-] | 2.86% |
| O=C(CCCn1c(=O)oc2ccccc21)N1CCN(c2ccccn2)CC1 | -9.08% |
| Cc1nc2c(n1O)CCC/C2=N\O | 8.48% |
| CN(/N=C/c1ccc([N+](=O)[O-])o1)c1ccccc1 | 10.4% |
| O=C1c2c(O)cccc2Cc2cccc(O)c21 | 8.11% |
| Cc1cccc(CS(=O)(=O)c2cn(CC(=O)N3CCOCC3)c3ccccc23)c1 | 11.9% |
| O=C(c1ccc2c3c(cccc13)C(=O)N(O)C2=O)N1CCCCC1 | 8.18% |
| COc1ccc(CC(=O)NCc2ccccc2)cc1OC | 11.6% |
| CCN1C(=O)C(CC(=O)Nc2ccccc2)N(Cc2ccccn2)C1=S (stereo not drawn) | -2.13% |
| O=C(CSc1nc2ccccc2o1)N1CCOCC1 | 12.5% |
| Cc1c(Cl)cccc1NC(=O)Cn1c(-c2ccc(F)cc2)noc1=O | 22.2% |
| CC(OC(=O)c1ccc(Cl)cc1)C(=O)NCC1CCCCC1 (stereo not drawn) | 7.04% |
| O=C1NC(c2cccnc2)C(C(=O)c2cccs2)C(O)(C(F)(F)F)N1 (stereo not drawn) | -14.6% |
| Cl.O=C(O)c1ccc(CNCc2c(Cl)cccc2Cl)cc1 | -2.86% |
| Cc1cccc(C)c1NC(=O)CC1SC2=NCCN2C1=O (stereo not drawn) | 10.4% |
| O=C(Nc1ccccc1Cc1ccccc1)c1ccc2c(c1)SC1=NS(=O)(=O)CCN12 | 0.207% |
| COc1cc2c(cc1NC(=O)c1ccc(C(C)(C)C)cc1)CCCC2 | 2.82% |
| O=C(CCC(=O)N1CCOc2ccccc21)NCc1ccccn1 | 14.8% |
| Cc1ccc(S(=O)(=O)N2CCCN(C(=O)c3cc4ccccc4[nH]3)CC2)cc1 | 3.06% |
| COc1ccc(NC(=O)CCN2C(=O)c3ccccc3C2=O)cc1 | 16.8% |

| Compound | hERG current change (%, negative = inhibition) at 1uM |
| --- | --- |
| COc1cccc(N2CCN(C(=O)CCSCc3ccccc3F)CC2)c1 | -9.59% |
| Cc1nnc(SCC(=O)Nc2ncc(Cc3ccc(F)cc3)s2)n1N | 8.14% |
| Nc1cc(=O)[nH]c(SCC(=O)Nc2ccc(F)c(Cl)c2)n1 | 13.2% |
| CC(C)(C)NC(=O)CSc1nc(N)c(NC(=O)c2ccccc2F)c(=O)[nH]1 | 17.2% |
| CC1CCCCC1NC(=O)CSc1nc2ccccc2[nH]1 (stereo not drawn) | 12% |
| COc1cc2c(cc1NC(=O)C(c1ccccc1)c1ccccc1)CCCC2 | 8.77% |
| CC(=O)NS(=O)(=O)c1cccnc1Nc1ccc(Cl)c(Cl)c1 | 13.1% |
| O=C(N/N=C/C=C/c1ccccc1[N+](=O)[O-])c1cccnc1 | 2.94% |
| Cc1ccc(C)c(S(=O)(=O)N/N=C/c2ccc(N(C)C)cc2)c1 | 17.4% |
| Cc1nn(C)c(C)c1CNC(=O)c1nn2c(c1Cl)NC(c1cccs1)CC2C(F)(F)F (stereo not drawn) | 7.05% |
| Cc1ccc(NC(=O)CS(=O)CC(=O)Nc2ccc(N3CCOCC3)cc2)cc1Cl (stereo not drawn) | 9.05% |
| CC1Cc2ccccc2N1C(=O)CN1C(=O)NC2(CCCCC2)C1=O (stereo not drawn) | 17.9% |
| Cc1ccc(C2=C(CC(=O)O)C(=O)CC2)cc1 | 14.1% |
| C/C(=N/Nc1ccccc1[N+](=O)[O-])c1ccc([N+](=O)[O-])cc1 | 12.4% |
| Cc1nc2nc[nH]n2c(=O)c1NC(=O)c1c(-c2ccccc2Cl)noc1C | 8.11% |
| O=S1(=O)N=C2CCCCCN2C(c2ccncc2)N1 (stereo not drawn) | -0.59% |
| CCOC(=O)Cn1c2c(c(=N)c3ccccc31)CCC2.Cl | 12.7% |
| COc1ccc(CCNC(=O)COC(=O)/C=C/c2cccs2)cc1OC | 11.7% |
| Cc1ccc(C(=O)Nc2nc3ccc(S(C)(=O)=O)cc3s2)cc1C | 10.9% |
| CCOc1cc(/C=N/NC(=O)C(=O)NCCCOC(C)C)cc(Br)c1O | 13.4% |
| Cc1cc(S(=O)(=O)N2CCOCC2)ccc1OCC(=O)Nc1ccc(F)cc1F | 12.3% |
